# Results: the supplement of paper PMC11417369
# ± gives the standard deviation of the averaged measurements. This is one part of the list.
# Tested on: PfAP2-I AP2 domain 3 (GST-tagged)
# Test: gcPBM binding intensity (ln(normalized median fluorescence intensity)); higher = stronger DNA binding
# Procedure, shortened: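 Probes on an Agilent 4 × 180k array were primer-extended, double-stranded and 36 bp long, taken from intergenic genomic regions, with negative controls added. GST-tagged P. falciparum DNA-binding domains from E. coli, about 25 μg on average, were applied to the array for 1 h in 1× PBS containing 1% milk, 0.2 mg/ml BSA, 0.5% salmon testes DNA and 0.03% Triton X-100. Binding intensity, obtained after Alexa488 anti-GST antibody detection and a 488 nm scan, is the highest Masliner-normalised natural-log median intensity across replicate spots of either probe orientation.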
row,Sequence,gcPBM binding intensity (ln)
1,TATGAAAATATATATTGTACAGAATCTATAAAAAAT [XGTACX_site8030],7.9 ± 0.44
2,AAAGAAATATATACAAAAATATGAACAATTTATTAT [XGTACX_negctrl_site78],7.41 ± 0.55
3,TTTTCGATGTTGGTAGGATGTATGGTACACGTAGTA [TGCATGCA_negctrl_site61],7.95 ± 0.67
4,GAAAATTTTTGGTGTACACAAAAAAATCCAAAAAAA [CACACA_site5042],8.67 ± 0.17
5,TATGATTGTTTACGTTGTACAGCTGAATTGTTCTTA [XGTACX_site8114],7.55 ± 0.47
6,AATAAAAGATCATTTATTCTTTTTTTTCTTTTTAAA [CACACA_negctrl_site1256],7.12 ± 0.74
7,TAAATAAATTTATACACACACACACCGATATATATA [CACACA_site4622],8.19 ± 0.63
8,GAATGCCTTGAAAATAGTACAATTAAGAAAAAATAC [XGTACX_site8002],8.09 ± 0.45
9,AAAATACATAAACGTTCACACATTTAAGATAACGAG [CACACA_site5345],7.7 ± 0.58
10,GAGTTTACACTCCCTTGTACATATTCATTTTTATTC [XGTACX_site5208],8.12 ± 0.63
11,TGAATAAATATATATACACACATATATGTATATATT [CACACA_site1642],7.38 ± 0.51
12,TATATATATAATATATGTACATATTAATTATGTATA [XGTACX_site5366],8.36 ± 0.028
13,ATATAAAAAAAAGATGAAAAAAAAAATGAAAGAAAG [CACACA_negctrl_site1266],7.71 ± 0.66
14,TTTTTTTTTTTTTACACACACAAAATATTATCTGTA [CACACA_site5378],8.22 ± 0.6
15,ATATATATAATATGATGTACATATTTATTTATATAT [XGTACX_site7333],8.23 ± 0.39
16,AATGAAATAAAATAAAGTACATATATGTAAAAGTAG [XGTACX_site5650],8.57 ± 0.54
17,AATTGAAAAGAATGAAGTACACATTTGATGATACAT [XGTACX_site5182],7.75 ± 0.75
18,TACATCTGTAATGTGTGTACATATATGTATATATTT [XGTACX_site1805],7.82 ± 0.53
19,CATAAACTTTTTAACACACACTTATATATATATATA [CACACA_site4747],9.52 ± 0.18
20,AAAAATTCTTTTTCATCTATATGCAGAAAGAAAAAG [CACACA_negctrl_site1201],7.76 ± 0.45
21,TAATTTTTATGAAGAAGTACAAAATCTACTATCATA [XGTACX_site4985],7.39 ± 0.47
22,CTAAATAAAGTTAACACACACATAATATATATATGT [CACACA_site486],7.75 ± 0.49

row,Sequence,gcPBM binding intensity (ln)
1,TATATGAAGCTATAGACACACATATAAAAATATAAT [CACACA_site4850],7.47 ± 0.62
2,GAATTTATGAACTGTGCATGTAAAAAAAACAACAAA [TGCATGCA_site449],8.62 ± 0.58
3,TATAATAATATATATTGTACACACAAAATGGGAAAA [XGTACX_site3911],8.21 ± 0.72
4,AGAAATACAAAATAAATATAAGAAACAAAATATTTA [CACACA_negctrl_site780],7.6 ± 0.48
5,AAAAGGTTATCAATATGTACATATTTTTTTATTTTT [XGTACX_site3277],7.71 ± 0.75
6,TGAAAAATAAATAAATGTACATATATATATATATAC [XGTACX_site7310],7.87 ± 0.45
7,TATTTCATCATATTGTGTACTTAATTTATATAATTA [XGTACX_site5753],7.97 ± 0.54
8,TTTTAATTAAAACACACACACACATATATATATATA [CACACA_site2291],9.41 ± 0.42
9,ATAAAAATATGATCAACACACGATTAAATATTCATA [CACACA_site1495],7.49 ± 0.49
10,CATCTAAATTGTAGTTGTACACCTTAATCTTATTAC [XGTACX_site7547],8.19 ± 0.2
11,TATTTTATCATTTGCACACGCACACCGACATAAAAA [CACACA_site4348],9.64 ± 0.15
12,GTATCAAAAGAATACACACACACATACATATATATA [CACACA_site3796],8.35 ± 0.63
13,ACTCTCTTATATTAAACACACATATTTATAGGTATA [CACACA_site7302],8.07 ± 0.45
14,ATTTTAGAATAAATTTTTTACATTAAAAAACTATTT [CACACA_negctrl_site1414],7.37 ± 0.54
15,TGAACATATTAAAATTGTACATATGCACAATATGTA [XGTACX_site6801],8.53 ± 0.29
16,AAGGATATAACATACACACACACACGGATATAAATA [CACACA_site7867],7.91 ± 0.6
17,CATACAATAAATATGGTGCATTTTATGTAACCGTTT [GTGCAC_site9420],10.2 ± 0.39
18,TAAAAGTTAATATAAACACACAAAAATTAATAAATA [CACACA_site6316],7.66 ± 0.61
19,AATTTCTATTTTGTGAGTACATACTCCTATTATATA [XGTACX_site3210],8.03 ± 0.5
20,ATAATGGAGAAATAAGCATGCATTATATTATAAAAA [TGCATGCA_site325],8.01 ± 0.98
21,TGAATATTTCTATATACACACATATAAATATAAATA [CACACA_site7593],7.55 ± 0.31
22,AAAAAAAAAAAAATGTAATTTTTTAATTATTTATAT [GTGCAC_negctrl_site436],7.27 ± 0.37

row,Sequence,gcPBM binding intensity (ln)
1,CATATATTTTTGTATAGTACTTTTTTTATTCGTTTT [XGTACX_site1860],7.84 ± 0.56
2,ATATTACTTCCTAAGTGTACAAGTAAGGAGAAAAAA [XGTACX_site3921],8.22 ± 0.42
3,GATAAAATGGATGGATGTACATTATTTCCATATAAT [XGTACX_site7781],7.66 ± 0.72
4,AGATGTTTTTATATATGTACTTAAATACACAAATAT [XGTACX_site8250],8.03 ± 0.35
5,AAAAAAAAAAAAAACACACACACAAAATAAACAAAC [CACACA_site2720],8.42 ± 0.45
6,TTATCGGTATAATATAGTACATATAGATATATAATA [XGTACX_site1440],7.7 ± 0.39
7,TGATAATTTTTTACATGTACAAGTTTGTTTTTGCAT [XGTACX_site125],7.88 ± 0.39
8,ATTCTTTATTATTCGCCACACACATATATATATATA [CACACA_site9009],9.32 ± 0.28
9,TATTGGAAAATTAGAAGTACTTTCATATATTAGACT [XGTACX_site4503],7.75 ± 0.36
10,TTTTTATTATTCCATAGTACAGAAAAAATGATATAT [XGTACX_site3431],7.88 ± 0.49
11,ATACCTACATACATACGTACATATATATATATAATG [XGTACX_site234],8.49 ± 0.33
12,TAGATTTTTATGCGTGCACACATTTAAAAAAAAAAC [CACACA_site3421],10.3 ± 0.25
13,AAATATAATAACATAACACACACATGTATTTATAGG [CACACA_site8009],7.78 ± 0.49
14,TTTTAATAAATTCAAAACATAAAAAGGAAAAAAAAA [XGTACX_negctrl_site471],7.78 ± 0.83
15,TATAATGAGAAGATATAATATATAGGGGGTAATTCT [GTGCAC_negctrl_site228],8.01 ± 0.64
16,TTTTTTTCATAAGAAGCACACAAAAAATGATAGAGA [CACACA_site8401],8.29 ± 0.4
17,ATATATATATATATATGTACTTATTTGTATAAATAC [XGTACX_site8031],9.19 ± 0.39
18,AGGATATAATACCATACACACATTTATAAAATAACA [CACACA_site1930],7.74 ± 0.49
19,ATAATATGAAAACACACACACACACCCAAAAAAAAA [CACACA_site2011],8.44 ± 0.18
20,CACATTAATTTTTGGGTGCACTTGGGAAATTTTGGT,10.9 ± 0.51
21,ATATATATTATATATATATATATATATATATATATA [CACACA_negctrl_site493],9.03 ± 0.59
22,AACAAATACGAACACACACACACACTAAAAAAAAAA [CACACA_site6386],8.27 ± 0.59

row,Sequence,gcPBM binding intensity (ln)
1,TGTAATCAAAAAAATAGTACATAAATTGTGTATACT [XGTACX_site5908],7.78 ± 0.43
2,TAATAAATAAATGACACACACACACGCAAAAAAAAA [CACACA_site7275],8.35 ± 0.42
3,ATATTTTCCCTTGTTTTACACACGTGCTGATATGAG [CACACA_site8672],8.59 ± 0.85
4,AATTTGAAATATGTGGTGCAGTTATATAATATGTTT [GTGCAC_site9885],10.02 ± 0.028
5,ATATAGAATAAAACTATACACACCTATATTTAAACA [CACACA_site1902],7.66 ± 0.42
6,TGTAGTCTGGAGAAAAGTACACAGTATCTGGTAACC [XGTACX_site2033],7.88 ± 0.6
7,CTTGTATAGAAACACACACACACTTTCTTTTTTTAA [CACACA_site1964],7.88 ± 0.69
8,TATATTAATAAAGGTACTACACGGAAATGGAAATAT [XGTACX_site7760],8.58 ± 0.67
9,ATATAAAAAAATAATAAATAAATAAAAAGATTTCTT [XGTACX_negctrl_site110],7.29 ± 0.73
10,TATAAAAAGCATAACACACACATGTCAATATATATA [CACACA_site1111],8.12 ± 0.74
11,ATAGAACAGAAAAGGCGTACAATAATATGTAAACAA [XGTACX_site2828],7.97 ± 0.36
12,AAAAAAAAAATATGTACACACATATATAATACATAA [CACACA_site1639],7.88 ± 0.26
13,TTAAGTCCGTTAACAGTGCATTTTTTCTTTTATGTA [GTGCAC_site9867],8.97 ± 0.45
14,AGAAAAGAGAAAAGTAGTACAAAGGATCATTTAAAA [XGTACX_site5294],7.75 ± 0.47
15,ATTAAAAAAATATAAACACACAAAAAAAAAATATAC [CACACA_site1100],8.09 ± 0.69
16,TAATGAAAAAATAAAAGAATAAATAAATAAATAAAT [TGCATGCA_negctrl_site130],8.09 ± 0.85
17,ATTACATGATATATCACACACACATATAGATATATA [CACACA_site7352],7.99 ± 0.59
18,GCTATTAATTTATAAGCACACAATATAAATATATAT [CACACA_site2251],8.46 ± 0.057
19,TACACGTTCTACATTTGTACTTAATTTATACATAAG [XGTACX_site1579],8.17 ± 0.37
20,TACGTCTTTTTTTTGGTGCATAATTTTTTTGTACAA,11.2 ± 0.44
21,AATTTTGTTAAAAGGACACACAATTCAATATATTAA [CACACA_site647],7.69 ± 0.51
22,ATTTATTTAAACAAATCACACACAAATATATATACA [CACACA_site8622],7.73 ± 0.35
